Measurements from patent publication US20260258397A1, “REAGENTS AND SYSTEMS FOR […]” (priority 2023, published 2026).

Assays:
PYR1^DIAZI = biological target: T1, PYR1^DIAZI (Arabidopsis thaliana, UniProt O49686, A160V/E8G/F108Y/F159G/L87M/M158V/V81Y); assay: cell-based; assay type: cell-based; settings: for Bottom / Top: PYR1-DIAZI; for Bottom: fit bottom of GFP fluorescence response; for Top: fit top of GFP fluorescence response
T1 construct: expressed in transfected cells; host or cells: S. cerevisiae (2µ plasmid)
T1 sequence (O49686 1-191 E8G/V81Y/L87M/F108Y/M158V/F159G/A160V): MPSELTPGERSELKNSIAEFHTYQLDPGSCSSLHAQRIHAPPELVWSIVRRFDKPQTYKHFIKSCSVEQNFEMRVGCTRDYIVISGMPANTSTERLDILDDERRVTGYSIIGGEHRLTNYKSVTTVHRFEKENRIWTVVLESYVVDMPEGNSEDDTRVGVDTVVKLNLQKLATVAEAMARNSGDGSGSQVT
T1 sequence (Q9CAJ0 178-511 partner): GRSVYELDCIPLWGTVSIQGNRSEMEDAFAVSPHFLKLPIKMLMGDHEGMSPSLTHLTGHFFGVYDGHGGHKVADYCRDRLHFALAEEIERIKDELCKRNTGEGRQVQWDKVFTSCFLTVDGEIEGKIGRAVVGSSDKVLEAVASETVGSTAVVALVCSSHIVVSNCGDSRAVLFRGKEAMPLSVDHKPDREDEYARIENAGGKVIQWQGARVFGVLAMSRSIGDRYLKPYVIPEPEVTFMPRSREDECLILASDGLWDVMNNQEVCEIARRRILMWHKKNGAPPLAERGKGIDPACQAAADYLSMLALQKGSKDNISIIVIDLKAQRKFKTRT
Text: (§1) PYR1 variants were used to drive gene expression in an inducible genetic circuit by fusing a zinc finger DNA binding domain (Z4^32) to the N-terminus of PYR1, and the VP64 activation domain 33 to the N-terminus of ΔN-HAB1. The SV40 nuclear localization signal was also fused to the N-terminus of PYR1. A single 2u plasmid was used to express SV40-Z4DBD-PYR1 and VP64-HAB1, while the GFP expression cassette (Z44-CYCcore-GFP-CYC 1term) was integrated at the YPRCΔ15 site on chromosome XVI. GFP fluorescence induced by each circuit was measured 12 h after ligand addition to 1 mL cultures, 30° C. Fluorescence was measured by flow cytometry. Briefly, 50 μL of resuspended cells were transferred to a 96-well plate for analysis. The fluorescence intensity of each cell was measured using a BD Accuri C6 flow cytometer equipped with auto-loading. The forward scatter, side scatter, and GFP fluorescence (Ex/Em 488/533 nm) were recorded for a minimum of 10,000 events.
(§2) Transformed yeast cells were acquired by first inoculating 5 mL of liquid media and incubating in a shaker incubator overnight at 30° C. Cells from the overnight culture were then used to inoculate a 50 mL culture with an initial cell density of 5×10^6 cells/mL. This culture was grown at 30° C. with 200 rpm shaking until ~2×10^7 cells/mL were produced, approximately 3 to 5 hours. Cells were harvested by centrifugation at 4000 rpm for 5 min, washed with 25 mL sterile, deionized water, resuspended in 1 mL of 100 mM LiAc, and transferred to a 1.5 mL tube, producing a cell suspension with approximately 10^9 cells/mL. The cell suspension was briefly mixed by vortexing and 100 μL was transferred into a clean 1.5 mL tube for each transformation. Cells were pelleted at 13000 rpm for 15 sec and the supernatant was removed. A transformation mixture of 240 μL PEG (50% w/v), 36 μL 1.0 M LiAc, 50 μL salmon sperm DNA (2.0 mg/ml), plasmid, and sterile water were added to the cell pellet and mixed by vortexing for 1 min (total volume of 360 μL). The mixed transformation solution was then heat shocked at 42° C. for 40 min. Post heat-shock, cells were recovered by centrifugation at 8000 rpm for 30 sec. Cells resuspended in 400 μL sterile water were plated on appropriate selection media, in this case agar-SD media without uracil. Plates were incubated at 30° C. until mature colonies were formed.
(§3) Three single transformants were picked from selection plates, inoculated in 2 mL of SD-Ura containing 2% glucose in 14 mL culture tubes. After 24 hours of growth at 30° C. in a shaker incubator (200 rpm), the OD600 of each sample was measured and cultures were back diluted to OD600=0.2 in fresh SD-Ura, the total volume of diluted culture was 9 mL. Each 9 mL culture was separated into 8 unique cultures by transferring 1 mL into 8 different wells of a 96 deep-well plate. Each well was used to evaluate the effect of a specific concentration of ligand. After all the cultures were transferred, 1 μL of stock ligand solution (each stock varying in concentration) was added to each well. The plate was sealed with an air-breathable polymer film and cultured with 1000 rpm shaking at 30° C. for 12 hours. Shaker humidity was maintained at 90%. Cells were harvested by centrifuge at 5000 g for 10 min, and after discarding the supernatant, the cells were suspended in 1 mL PBS buffer and centrifuged at 5000 g for 10 min. The cells were washed with 1 mL PBS buffer twice and resuspended in 1 mL DI water for flow cytometry analysis. For flow cytometry analysis, 50 μL of resuspended cells were transferred to a 96-well plate with flat bottom, adding DI water up to final volume 200 μL. The fluorescence intensity of cells within each sample was measured using a BD Accuri C6 flow cytometer equipped with auto-loading from 96 well plates. The forward scatter, side scatter, and GFP fluorescence (Ex/Em 488/533 nm) were recorded for a minimum of 10,000 events.

PYR1^PIRI = biological target: T2, PYR1^PIRI (Arabidopsis thaliana, UniProt O49686, A160T/E130G/F159T/K59R/N119S/S122Q/S92M/V174A); assay: cell-based; assay type: cell-based; settings: for Top: PYR1-PIRI, fit top of GFP fluorescence response
T2 construct: expressed in transfected cells; host or cells: S. cerevisiae (2µ plasmid)
T2 sequence (O49686 1-191 K59R/S92M/N119S/S122Q/E130G/F159T/A160T/V174A): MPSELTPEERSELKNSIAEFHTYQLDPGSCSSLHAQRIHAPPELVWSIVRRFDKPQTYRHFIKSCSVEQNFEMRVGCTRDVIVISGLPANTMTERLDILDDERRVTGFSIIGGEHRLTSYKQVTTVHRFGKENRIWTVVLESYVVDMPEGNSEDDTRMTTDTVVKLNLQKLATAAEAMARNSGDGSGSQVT
T2 sequence (Q9CAJ0 178-511 partner): T1 sequence (Q9CAJ0 178-511 partner)
Text: as §1, §2, §3

Row | Structure (SMILES) | EC50 (PYR1^DIAZI) [nM] | Bottom (PYR1^DIAZI) | Top (PYR1^DIAZI) | EC50 (PYR1^PIRI) [nM] | Top (PYR1^PIRI)
1 | CCOP(=S)(OCC)SCn1nnc2ccccc2c1=O [Azinphos, azinphos-ethyl] | 1120 | 19538 | 91584 | 26900 | 104767
2 | CCOP(=S)(OCC)Oc1ccc2c(C)c(Cl)c(=O)oc2c1 [Coumaphos] | 772 | 23886 | 61154 | 2680 | 36298
